No constants are given. Whether binding was seen depends on the method and setting. Binding seen in cells or lysates may run through a third protein. Some binding calls cover weakened binding; strength is not graded here. Sequences can lack the tags named with a protein.
Experiments:
[1] = biological target: T1, GFP tagged wild-type Aub (ovary) (Drosophila melanogaster) (UniProt O76922); experiment: co-IP; GFP tagged Aub immunoprecipitated from ovarian lysate (NT2 buffer: 50 mM Tris pH 7.4, 150 mM NaCl, 1 mM MgCl2, 0.05% Igepal), 4 °C, 4 h; Western blot
T1 sequence (chain, symmetric dimethylarginine (sDMA) in the N-terminal region, detected with SYM11): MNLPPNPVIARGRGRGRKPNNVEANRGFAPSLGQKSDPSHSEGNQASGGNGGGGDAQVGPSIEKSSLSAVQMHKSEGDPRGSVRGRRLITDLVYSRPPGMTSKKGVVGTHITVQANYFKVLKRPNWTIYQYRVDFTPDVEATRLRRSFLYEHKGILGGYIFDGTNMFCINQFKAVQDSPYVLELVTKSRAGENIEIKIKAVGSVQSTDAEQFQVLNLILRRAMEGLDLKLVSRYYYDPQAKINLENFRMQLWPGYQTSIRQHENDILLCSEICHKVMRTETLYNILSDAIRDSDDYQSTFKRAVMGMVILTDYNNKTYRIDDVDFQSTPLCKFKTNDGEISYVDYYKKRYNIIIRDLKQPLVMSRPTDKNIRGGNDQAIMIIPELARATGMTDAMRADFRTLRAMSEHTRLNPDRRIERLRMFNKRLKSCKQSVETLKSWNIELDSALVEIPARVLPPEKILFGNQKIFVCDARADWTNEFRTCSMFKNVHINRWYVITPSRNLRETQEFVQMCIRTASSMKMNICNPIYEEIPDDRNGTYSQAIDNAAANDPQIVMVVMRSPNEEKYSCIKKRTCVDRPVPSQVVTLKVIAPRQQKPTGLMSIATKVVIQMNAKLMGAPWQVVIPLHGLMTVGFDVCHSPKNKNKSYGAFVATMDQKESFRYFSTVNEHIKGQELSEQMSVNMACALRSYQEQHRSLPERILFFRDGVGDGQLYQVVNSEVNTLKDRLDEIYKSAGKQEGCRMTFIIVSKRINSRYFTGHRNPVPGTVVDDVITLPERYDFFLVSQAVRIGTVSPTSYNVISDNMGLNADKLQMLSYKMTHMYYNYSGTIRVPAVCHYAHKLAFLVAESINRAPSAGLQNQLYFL

Protein sequences, listed by entry. Tags and fused reporters are not part of them.
UniProt P25823: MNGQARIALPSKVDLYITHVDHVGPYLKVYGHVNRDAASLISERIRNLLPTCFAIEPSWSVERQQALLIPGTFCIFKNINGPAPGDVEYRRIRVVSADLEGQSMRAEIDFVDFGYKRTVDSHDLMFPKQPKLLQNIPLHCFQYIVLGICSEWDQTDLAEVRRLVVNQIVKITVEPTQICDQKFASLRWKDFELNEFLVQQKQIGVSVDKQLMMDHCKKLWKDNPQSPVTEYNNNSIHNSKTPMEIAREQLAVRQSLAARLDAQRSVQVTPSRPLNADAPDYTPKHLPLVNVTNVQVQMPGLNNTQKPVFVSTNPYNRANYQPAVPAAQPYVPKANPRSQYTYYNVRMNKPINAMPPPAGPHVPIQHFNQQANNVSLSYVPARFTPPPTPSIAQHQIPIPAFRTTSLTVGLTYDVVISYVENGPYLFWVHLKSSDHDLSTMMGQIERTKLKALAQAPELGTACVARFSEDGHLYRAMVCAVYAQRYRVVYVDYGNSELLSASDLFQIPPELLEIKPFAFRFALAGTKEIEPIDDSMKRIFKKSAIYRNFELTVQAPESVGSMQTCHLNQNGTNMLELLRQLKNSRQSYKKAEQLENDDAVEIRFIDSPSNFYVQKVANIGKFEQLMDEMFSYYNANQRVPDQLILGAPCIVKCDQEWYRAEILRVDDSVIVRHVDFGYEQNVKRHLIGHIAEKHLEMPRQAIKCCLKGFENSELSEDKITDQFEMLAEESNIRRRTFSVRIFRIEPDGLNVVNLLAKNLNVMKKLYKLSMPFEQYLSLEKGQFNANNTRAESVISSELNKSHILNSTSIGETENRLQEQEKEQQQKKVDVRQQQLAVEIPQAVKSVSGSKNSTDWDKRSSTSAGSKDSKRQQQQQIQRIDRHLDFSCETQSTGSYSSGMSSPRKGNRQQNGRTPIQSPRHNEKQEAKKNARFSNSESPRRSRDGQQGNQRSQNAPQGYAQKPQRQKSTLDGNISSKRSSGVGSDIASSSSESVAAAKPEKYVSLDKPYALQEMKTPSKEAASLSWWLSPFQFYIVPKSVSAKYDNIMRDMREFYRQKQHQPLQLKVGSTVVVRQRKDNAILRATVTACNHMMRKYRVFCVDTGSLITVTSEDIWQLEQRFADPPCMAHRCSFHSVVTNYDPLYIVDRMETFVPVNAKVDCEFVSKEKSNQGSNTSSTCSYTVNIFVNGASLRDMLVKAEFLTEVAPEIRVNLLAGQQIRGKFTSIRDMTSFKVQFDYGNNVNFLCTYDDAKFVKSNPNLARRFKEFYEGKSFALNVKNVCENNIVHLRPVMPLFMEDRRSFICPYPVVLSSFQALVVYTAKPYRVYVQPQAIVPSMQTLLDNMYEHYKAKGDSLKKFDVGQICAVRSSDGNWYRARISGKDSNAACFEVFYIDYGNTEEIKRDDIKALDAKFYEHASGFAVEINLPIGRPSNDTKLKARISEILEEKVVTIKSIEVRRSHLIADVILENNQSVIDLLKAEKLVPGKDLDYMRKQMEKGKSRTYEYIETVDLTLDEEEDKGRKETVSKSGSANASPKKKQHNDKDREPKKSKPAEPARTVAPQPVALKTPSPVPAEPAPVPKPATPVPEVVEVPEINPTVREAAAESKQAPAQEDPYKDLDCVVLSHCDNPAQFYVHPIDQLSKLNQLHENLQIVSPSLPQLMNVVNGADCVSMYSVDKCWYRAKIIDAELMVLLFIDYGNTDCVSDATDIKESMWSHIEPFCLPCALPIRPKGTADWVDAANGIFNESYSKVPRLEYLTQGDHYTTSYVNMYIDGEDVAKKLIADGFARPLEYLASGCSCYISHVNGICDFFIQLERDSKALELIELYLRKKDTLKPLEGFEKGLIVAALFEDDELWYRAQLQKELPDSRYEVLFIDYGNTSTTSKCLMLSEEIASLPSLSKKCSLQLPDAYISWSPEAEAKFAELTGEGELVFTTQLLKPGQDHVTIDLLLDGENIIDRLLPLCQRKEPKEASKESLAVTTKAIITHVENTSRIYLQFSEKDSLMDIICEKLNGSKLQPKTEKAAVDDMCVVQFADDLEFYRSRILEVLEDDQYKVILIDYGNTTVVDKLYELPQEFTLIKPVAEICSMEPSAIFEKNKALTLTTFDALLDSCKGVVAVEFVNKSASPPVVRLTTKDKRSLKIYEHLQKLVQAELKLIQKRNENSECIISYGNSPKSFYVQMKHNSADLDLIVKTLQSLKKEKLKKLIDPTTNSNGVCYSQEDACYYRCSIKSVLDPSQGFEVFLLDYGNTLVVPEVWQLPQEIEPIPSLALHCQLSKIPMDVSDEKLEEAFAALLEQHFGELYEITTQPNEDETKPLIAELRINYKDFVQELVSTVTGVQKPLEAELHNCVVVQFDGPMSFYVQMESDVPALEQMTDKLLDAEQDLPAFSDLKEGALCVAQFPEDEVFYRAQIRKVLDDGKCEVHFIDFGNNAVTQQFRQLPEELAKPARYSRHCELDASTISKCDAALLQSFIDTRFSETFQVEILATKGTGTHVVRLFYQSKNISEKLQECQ

[2] = biological target: T2, FLAG-tagged Aub (Drosophila melanogaster) (UniProt O76922); experiment: co-IP; two-step sequential immunoprecipitation from S2 cells co-expressing FLAG-Aub, HA-Ago3 and GFP-deltaN-Krimper: FLAG IP, elution with 3X FLAG peptide, then GFP IP; Western blot; lysis buffer 20 mM Tris pH 7.4, 200 mM KCl, 0.1% Tween-20, 0.1% Igepal, 100 μg/mL RNase A
T2 sequence: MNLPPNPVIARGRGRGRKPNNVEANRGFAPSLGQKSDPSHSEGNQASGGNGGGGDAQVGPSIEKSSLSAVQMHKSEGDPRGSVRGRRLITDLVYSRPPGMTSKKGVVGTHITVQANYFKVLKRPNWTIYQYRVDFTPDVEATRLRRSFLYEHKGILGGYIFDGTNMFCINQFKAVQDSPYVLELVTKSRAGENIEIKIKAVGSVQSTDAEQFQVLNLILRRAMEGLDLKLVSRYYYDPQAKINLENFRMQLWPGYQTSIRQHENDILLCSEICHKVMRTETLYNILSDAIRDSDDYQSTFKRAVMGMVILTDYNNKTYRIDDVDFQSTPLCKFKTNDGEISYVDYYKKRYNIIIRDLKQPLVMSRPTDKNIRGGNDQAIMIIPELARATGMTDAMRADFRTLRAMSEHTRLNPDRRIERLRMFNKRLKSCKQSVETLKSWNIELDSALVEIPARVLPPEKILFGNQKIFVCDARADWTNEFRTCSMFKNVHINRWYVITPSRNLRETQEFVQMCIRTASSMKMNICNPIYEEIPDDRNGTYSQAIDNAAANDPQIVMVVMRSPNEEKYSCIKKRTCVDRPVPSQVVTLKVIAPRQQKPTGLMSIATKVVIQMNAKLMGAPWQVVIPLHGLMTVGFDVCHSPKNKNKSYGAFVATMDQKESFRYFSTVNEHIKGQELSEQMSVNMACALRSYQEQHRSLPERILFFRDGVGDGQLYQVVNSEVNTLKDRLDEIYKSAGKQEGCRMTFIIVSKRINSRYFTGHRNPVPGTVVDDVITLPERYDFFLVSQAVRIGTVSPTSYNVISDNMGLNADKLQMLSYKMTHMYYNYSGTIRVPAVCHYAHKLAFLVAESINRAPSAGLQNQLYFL

[3] = biological target: T3, Aub expressed in S2 cells (tag not named) (Drosophila melanogaster) (UniProt O76922); experiment: co-IP; tagged proteins co-expressed in S2 cells; lysis buffer 20 mM Tris pH 7.4, 200 mM KCl, 0.1% Tween-20, 0.1% Igepal, 100 μg/mL RNase A; anti-FLAG, anti-HA or anti-GFP beads, 4 °C, 4 h; Western blot; in Fig. 6e lysates were incubated with or without ssRNA oligo before the co-IP
T3 sequence: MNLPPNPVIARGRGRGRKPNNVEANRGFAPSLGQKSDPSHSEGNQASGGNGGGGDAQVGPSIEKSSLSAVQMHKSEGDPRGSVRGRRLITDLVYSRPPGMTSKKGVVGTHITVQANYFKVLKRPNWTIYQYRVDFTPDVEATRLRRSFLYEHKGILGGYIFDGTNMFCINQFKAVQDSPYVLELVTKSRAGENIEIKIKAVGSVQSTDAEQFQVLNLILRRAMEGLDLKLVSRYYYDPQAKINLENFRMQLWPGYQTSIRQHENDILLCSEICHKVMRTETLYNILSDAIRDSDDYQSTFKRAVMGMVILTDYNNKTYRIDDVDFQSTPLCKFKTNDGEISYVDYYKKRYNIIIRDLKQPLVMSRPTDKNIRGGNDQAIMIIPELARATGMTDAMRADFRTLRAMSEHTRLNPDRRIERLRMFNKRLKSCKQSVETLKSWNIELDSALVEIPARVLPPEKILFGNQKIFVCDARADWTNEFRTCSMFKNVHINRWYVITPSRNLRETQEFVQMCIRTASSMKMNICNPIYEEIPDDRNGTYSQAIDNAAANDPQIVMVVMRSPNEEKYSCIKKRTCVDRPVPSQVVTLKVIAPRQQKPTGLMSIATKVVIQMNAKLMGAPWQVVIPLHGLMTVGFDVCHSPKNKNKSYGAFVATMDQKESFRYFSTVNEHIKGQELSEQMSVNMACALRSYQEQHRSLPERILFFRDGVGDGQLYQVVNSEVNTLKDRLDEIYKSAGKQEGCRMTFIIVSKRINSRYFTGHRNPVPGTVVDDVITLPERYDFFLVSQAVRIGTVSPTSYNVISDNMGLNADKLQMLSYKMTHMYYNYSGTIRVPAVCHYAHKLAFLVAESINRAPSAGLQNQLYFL

In the case of Tudor (from UniProt P25823 1-2515), the binding [1] is reported as “binds”.

B1: GFP-tagged truncated Krimper lacking its N terminal dimerization domain (domain or fragment, UniProt A1ZAC4 301-746)
chain: RDIYNQILKDMAAFPENTIVTAVLASVDVTDNCAYVAKWDESSDRIKKVLQRQLPLQELDQLPDYGDIFAVLDSINNIITRITINSSSAGGGYDAYLIDFGEHIHFDGNETIFKLPDDIKRLPAQAIRCDLINCDIANMHCFVNTYIKIRVHENNNSTLVAEPVIDRLSRPTKTNTTKYPAGITEDDMAMLNEIDESTSDPLKAVLGFRPKDEQRICRHYDPKLNGCFKGNNCRFAHEPFAPNGATKDVELARALPETIFDTTVHFEIGSIVGILITFINGPTEVYGQFLDGSPPLVWDKKDVPENKRTFKSKPRLLDIVLALYSDGCFYRAQIIDEFPSEYMIFYVDYGNTEFVPLSCLAPCENVDSFKPHRVFSFHIEGIVRSKNLTHQKTIECIEYLKSKLLNTEMNVHLVQRLPDGFLIRFLDDWKYIPEQLLQRNYAQVSQ
In the case of B1, the binding [2] is reported as “binds”.

B2: GFP-Csul (enzyme, UniProt Q9U6Y9 1-610)
chain: MNYYVCLHQEGVNSIPKLIEKAFANNYNVVSTSINANMLPFEPHESDPTYPATILSGSDWNSKVIFTMSDVNVDSPNDKLREHAKEVFMRDVAWAEHLQNVGNLMVRLRGPENENLASIVLAKTKDDFPSGNWFIQVPITNPELATFEHRKDATAEEVAEAESNDPWNWWNNLRMVTKHSTKVKVVIELNDADRPSKETVRRWLGEPIEAIIIPSSLFVRNRSNYCVLKKEWQLIVGHFISVRANIIISTNPNDKALCQYADYVNKLINDNCDKHMLNSYENMLEIPLQPLCDNLDTYTYEVFETDPVKYKLYQDAVQAALLDRVSAAEAKTKLTVVMLLGGGRGPLARAVFNAAELTKRKVRLYIIEKNPNAIRTLSNMVKTLWADKDVHIFSKDMRDFSPPELADIMVSELLGSFGDNELSPECLDGALKLLKPDGISIPYKSTSYINPLMSAVLHQNVCQLLPTYPAFDYGYVSLLKNIYHIDEPQALFEFVHPNRAENIDNTRCKTVSFKVNKDCVLHGIGGYFDTHLYKDICLSINPLTHTPGMFSWFPMFFATRPRTLREGQTISIQFWRCVDATKVWYEWQVVNSPDDWEHHNTRGTGYNMRL
For B2, the binding [3] was “binds”.

Source: PMC8249470, “Binding of guide piRNA triggers methylation of the unstructured N-terminal region of Aub leading to assembly of the piRNA amplification complex” (Nature Communications, 2021)
